Measured values reported in article PMC12820563, “FoxP3 forms a head-to-head dimer in vivo and stabilizes its multimerization on adjacent microsatellites”.
Some of the results follow.

target: T1, MBP-FoxP1dN (Mus musculus, UniProt P58462 326-579); assay: PD-seq (MBP pull-down with sequencing); 20 mM Tris-HCl pH 7.5, 100 mM NaCl, 1.5 mM MgCl2, 0.4 uM protein, 0.1 uM dsDNA library, 30 min, room temperature, amylose pull-down; high values mean tight binding; settings: protein: recombinant; tags: His6-MBP; chain copies: 2; dsDNA, one strand shown
T1 sequence: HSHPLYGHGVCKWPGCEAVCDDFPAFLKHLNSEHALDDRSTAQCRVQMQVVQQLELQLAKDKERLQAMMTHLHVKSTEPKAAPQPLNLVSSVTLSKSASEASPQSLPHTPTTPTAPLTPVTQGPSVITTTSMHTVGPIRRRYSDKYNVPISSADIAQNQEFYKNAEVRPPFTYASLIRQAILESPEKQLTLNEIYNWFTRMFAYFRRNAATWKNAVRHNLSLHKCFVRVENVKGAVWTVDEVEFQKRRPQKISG
Outline: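 A degenerate double-stranded DNA library, filled in with Klenow, was added at 0.1 µM to 0.4 µM His6-MBP-tagged mouse FoxP3 or FoxP1 fragment lacking the N-terminus, expressed in E. coli. Incubation lasted 30 min at room temperature in Tris pH 7.5 buffer with NaCl and MgCl2, after which complexes were collected on amylose resin, washed three times, digested with proteinase K to free the DNA, barcoded by PCR and sequenced by Illumina. Binding is the pooled-replicate reads-per-million enrichment of pull-down over input.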

Row | Sequence | binding signal
1 | GATGATTGTTCTCCCAGCTGATGAATTTGGCGTATCGAGTAAACAAATTTTCCTAATCTTTCTGTTCAAGCGCCATCTAC | 0.959 RPM ratio (pull-down/input)
2 | GATGATTGTTCTCCCAGCTGATGAATTGATTATCTCGAGTAAACAAATTTTCCTAATCTTTCTGTTCAAGCGCCATCTAC | 1.22 RPM ratio (pull-down/input)
3 | GATGATTGTTCTCCCAGCTGATGAATTTCTCTAGTCGAGTAAACAAATTTTCCTAATCTTTCTGTTCAAGCGCCATCTAC | 0.844 RPM ratio (pull-down/input)
4 | GATGATTGTTCTCCCAGCTGATGAATTTGCGCAGTCGAGTAAACAAATTTTCCTAATCTTTCTGTTCAAGCGCCATCTAC | 0.932 RPM ratio (pull-down/input)
5 | GATGATTGTTCTCCCAGCTGATGAATTCTTGCACTCGAGTAAACAAATTTTCCTAATCTTTCTGTTCAAGCGCCATCTAC | 0.933 RPM ratio (pull-down/input)
6 | GATGATTGTTCTCCCAGCTGATGAATTTTCATTGTCGAGTAAACAAATTTTCCTAATCTTTCTGTTCAAGCGCCATCTAC | 1.19 RPM ratio (pull-down/input)
7 | GATGATTGTTCTCCCAGCTGATGAATTTGTGGGCTCGAGTAAACAAATTTTCCTAATCTTTCTGTTCAAGCGCCATCTAC | 0.875 RPM ratio (pull-down/input)
8 | GATGATTGTTCTCCCAGCTGATGAATTTTATGCATCGAGTAAACAAATTTTCCTAATCTTTCTGTTCAAGCGCCATCTAC | 1.38 RPM ratio (pull-down/input)
9 | GATGATTGTTCTCCCAGCTGATGAATTAGCTCCATCGAGTAAACAAATTTTCCTAATCTTTCTGTTCAAGCGCCATCTAC | 0.985 RPM ratio (pull-down/input)
10 | GATGATTGTTCTCCCAGCTGATGAATTTCGAAGATCGAGTAAACAAATTTTCCTAATCTTTCTGTTCAAGCGCCATCTAC | 0.875 RPM ratio (pull-down/input)
11 | GATGATTGTTCTCCCAGCTGATGAATTCGCCAAGTCGAGTAAACAAATTTTCCTAATCTTTCTGTTCAAGCGCCATCTAC | 0.735 RPM ratio (pull-down/input)
12 | GATGATTGTTCTCCCAGCTGATGAATTGGAACAGTCGAGTAAACAAATTTTCCTAATCTTTCTGTTCAAGCGCCATCTAC | 0.847 RPM ratio (pull-down/input)
13 | GATGATTGTTCTCCCAGCTGATGAATTCCTCCAATCGAGTAAACAAATTTTCCTAATCTTTCTGTTCAAGCGCCATCTAC | 0.937 RPM ratio (pull-down/input)
14 | GATGATTGTTCTCCCAGCTGATGAATTAACGGATTCGAGTAAACAAATTTTCCTAATCTTTCTGTTCAAGCGCCATCTAC | 0.846 RPM ratio (pull-down/input)
15 | GATGATTGTTCTCCCAGCTGATGAATTTTCCCTTTCGAGTAAACAAATTTTCCTAATCTTTCTGTTCAAGCGCCATCTAC | 0.93 RPM ratio (pull-down/input)
16 | GATGATTGTTCTCCCAGCTGATGAATTAACCTTTTCGAGTAAACAAATTTTCCTAATCTTTCTGTTCAAGCGCCATCTAC | 0.881 RPM ratio (pull-down/input)

Row | Sequence | binding signal
17 | GATGATTGTTCTCCCAGCTGATGAATTCGCATGATCGAGTAAACAAATTTTCCTAATCTTTCTGTTCAAGCGCCATCTAC | 0.921 RPM ratio (pull-down/input)
18 | GATGATTGTTCTCCCAGCTGATGAATTATCAGCATCGAGTAAACAAATTTTCCTAATCTTTCTGTTCAAGCGCCATCTAC | 1.17 RPM ratio (pull-down/input)
19 | GATGATTGTTCTCCCAGCTGATGAATTCTCGCTGTCGAGTAAACAAATTTTCCTAATCTTTCTGTTCAAGCGCCATCTAC | 0.87 RPM ratio (pull-down/input)
20 | GATGATTGTTCTCCCAGCTGATGAATTTCGCGGGTCGAGTAAACAAATTTTCCTAATCTTTCTGTTCAAGCGCCATCTAC | 0.737 RPM ratio (pull-down/input)
21 | GATGATTGTTCTCCCAGCTGATGAATTGGGCCCGTCGAGTAAACAAATTTTCCTAATCTTTCTGTTCAAGCGCCATCTAC | 0.81 RPM ratio (pull-down/input)
22 | GATGATTGTTCTCCCAGCTGATGAATTCCTGGGGTCGAGTAAACAAATTTTCCTAATCTTTCTGTTCAAGCGCCATCTAC | 0.725 RPM ratio (pull-down/input)
23 | GATGATTGTTCTCCCAGCTGATGAATTGGGCGAATCGAGTAAACAAATTTTCCTAATCTTTCTGTTCAAGCGCCATCTAC | 0.944 RPM ratio (pull-down/input)
24 | GATGATTGTTCTCCCAGCTGATGAATTTGGATATTCGAGTAAACAAATTTTCCTAATCTTTCTGTTCAAGCGCCATCTAC | 0.97 RPM ratio (pull-down/input)
25 | GATGATTGTTCTCCCAGCTGATGAATTTAGTTTATCGAGTAAACAAATTTTCCTAATCTTTCTGTTCAAGCGCCATCTAC | 1.89 RPM ratio (pull-down/input)
26 | GATGATTGTTCTCCCAGCTGATGAATTGCTATAGTCGAGTAAACAAATTTTCCTAATCTTTCTGTTCAAGCGCCATCTAC | 1.08 RPM ratio (pull-down/input)
27 | GATGATTGTTCTCCCAGCTGATGAATTCGAATAATCGAGTAAACAAATTTTCCTAATCTTTCTGTTCAAGCGCCATCTAC | 1.13 RPM ratio (pull-down/input)
28 | GATGATTGTTCTCCCAGCTGATGAATTTTTTTCATCGAGTAAACAAATTTTCCTAATCTTTCTGTTCAAGCGCCATCTAC | 1.02 RPM ratio (pull-down/input)
29 | GATGATTGTTCTCCCAGCTGATGAATTGAGAGGATCGAGTAAACAAATTTTCCTAATCTTTCTGTTCAAGCGCCATCTAC | 0.854 RPM ratio (pull-down/input)
30 | GATGATTGTTCTCCCAGCTGATGAATTCATGGTTTCGAGTAAACAAATTTTCCTAATCTTTCTGTTCAAGCGCCATCTAC | 0.912 RPM ratio (pull-down/input)
31 | GATGATTGTTCTCCCAGCTGATGAATTTTTAAATTCGAGTAAACAAATTTTCCTAATCTTTCTGTTCAAGCGCCATCTAC | 1.09 RPM ratio (pull-down/input)
32 | GATGATTGTTCTCCCAGCTGATGAATTTGTCGAATCGAGTAAACAAATTTTCCTAATCTTTCTGTTCAAGCGCCATCTAC | 1.11 RPM ratio (pull-down/input)
